{"source": "patent US20050181998A1", "about": "(APPLIED RESEARCH SYSTEMS ARS HOLDING N.V., priority 2001, published 2005)", "note": "Where a SMILES comes first, the peptide text is derived from it. [ ]: non-standard residue; d: D form.", "data": [{"settings": "human plasma and rat brain homogenate, 37° C.", "description": "The peptides of the invention were prepared as a 1 μg/μl solution in water.\n20 μl of the peptide solution was diluted in 80 μl of fresh human plasma or 80 μl of 10% rat brain homogenate. The solution was incubated at 37° C. for different time periods and the reaction was stopped by adding a complete <> of protease inhibitors. The bulk of the plasma proteins (none of the peptide) were precipitated in cold methanol (mix/MeOH, ⅘, v/v) for one hour at −20° C. The precipitated proteins were pelleted by centrifugation (10,000 rpm, 10 min, 4° C.). The supernatant, containing the peptide, was concentrated 5 times under vacuum and separated by reverse-phase HPLC. The peak area corresponding to the intact peptide was measured and compared with an equivalent sample incubated without plasma.", "values": [{"smiles": "C[C@H](NC(=O)[C@H](C)NC(=O)[C@@H]1CCCN1)C(=O)NCC(=O)O", "note": "[PAAG] (H-PAAG-OH)", "stability (peptide degradation)": "short stability"}, {"smiles": "C[C@@H](NC(=O)[C@@H](C)NC(=O)[C@H]1CCCN1)C(=O)NCC(=O)O", "note": "[paag] (H-[dP][dA][dA]G-OH)", "stability (peptide degradation)": "dramatically increased"}, {"smiles": "CC(=O)N1CCC[C@H]1C(=O)N[C@@H](C)C(=O)N[C@@H](C)C(=O)NCC(N)=O", "note": "[Ac-PAAG-Am, Ac-PAAG-NH2] (Ac-PAAG-NH2)", "stability (peptide degradation)": "dramatically increased"}]}]}
